Our source for the self-cleavage values is the RNAGym collection of RNA variant scans (doi:10.1093/nar/gkz1192).

The source gives no read counts; variants with many changes may rest on few reads.

Sequences and labels used below:
B1: CPEB3 Ribozyme (parent)
chain: UAACAGGGGGCCACAGCAGAAGCGUUCACGUCGCAGCCCCUGUCAGAUUCUGGUGAAUCUGCGAAUUCUGCUGUAUAUCUC

This data set covers variants of B1. The data set is described as follows: self-cleavage, relative activity (ratio to wild type); higher = more cleavage; in vitro, sequencing. An outline of the steps:
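CPEB3 self-cleaving ribozyme mutant libraries were made by rounds of error-prone PCR, barcoded, and transcribed in vitro with T7 RNA polymerase for 5 hours at 37°C. Cleavage occurred during transcription and a 15 min DNase I step before EDTA stop. RNAs were reverse transcribed with template switching and Illumina-sequenced, with DNA sequencing mapping barcodes to variants. Relative activity is the variant's cleaved/total read fraction divided by wild type's (minimum 5 reads), averaged across three batches.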
As for U31C A35U U41C G46U, the self-cleavage was determined as 0.11. The same measure for U31C G36A U43A U72A G73A: 0.56; for U31C A56G U58A: 0.12. Turning to U31C G33U A64U G70A, the self-cleavage turned out to be 0.07. In the case of U31C C32A U67C C68U U74A, the self-cleavage was 0.06. The result for U31C A45C A65U reads 0.44; that for U31C A45U U48A A56G C59U U78C, 0.06; that for U31C A35G U49A A77G, 1.31. The same measure for U31C C37A U48C A56U: 0.12; for U31A U54A U60A U69A U72C U76C U80A: 0.15. The result for U31C G33U U74C reads 0.27; that for U31C C40U U41C A47G A56G U60A, 0.06. In the case of U31C G36U U43G U51C, the self-cleavage amounted to 0.11. Turning to U31C A47G A77U, the self-cleavage stood at 0.44.

As to U31A U54C G61C A64U A65G U76C, the self-cleavage stood at 0.06.

As to U31C C40G U41C U60A U69C, the self-cleavage was 0.18. The result for U31A U58C U67A U76C reads 0.1.

As for U31C A35G U43G, the self-cleavage stood at 0.09. The same measure for U31A U51G U60C: 0.09; for U31C G55U G70A: 0.34. Regarding U31C A47G U78A, the self-cleavage amounted to 0.91. The same measure for U31C A45G U72A: 0.26; for U31C A56G G63C: 0.29; for U31C A45U U51C A57G A64U: 0.05. The same measure for U31C C40U U43A U78C: 0.5.

Take U31C U41C U66C U80A: the self-cleavage was found to be 0.23. The same measure for U31A U60C U66C: 0.13; for U31C G52C U54C: 0.98; for U31C A35G U51C: 1.26. In the case of U31C U41C A47G U74C, the self-cleavage turned out to be 1.16. The result for U31C A65G U80A reads 0.42; that for U31C C38U A64U U80C, 0.15; that for U31C C32U U43A U54A, 0.07.

As to U31C G33A A35G A45G A57G U66C U80C, the self-cleavage worked out at 0.08. The result for U31C U41C A57G C62U reads 0.14; that for U31C C34A U54C U60C, 0.13. The result for U31C C32G U41C U69C C71G U78C reads 0.11; that for U31C U41A C62G U69C, 0.08. The result for U31C G36C U54C reads 0.11. On to U31A U66C U67C, for which the self-cleavage was 0.23. With U31C A45G U54A A56U A57U U58C, the self-cleavage was found to be 0.13. The same measure for U31C A57G U60C U66A: 0.35; for U31C G63C A65U U80C: 0.18. The result for U31C U41C U43C A56G reads 0.14; that for U31C A47G A57G A77G, 0.32. With U31C A65G C68U, the self-cleavage was found to be 0.14. The same measure for U31C A64G U66C: 0.5. For the variant U31C A35U U74A U78C, the self-cleavage is 0.6. The result for U31A U60A A65G reads 0.26. The same measure for U31A U58A A64U: 0.16; for U31C A35G G42U U43C A57G U60C U69C: 0; for U31C A56U U58A U60C: 0.16.

As to U31C C59A A64C, the self-cleavage turned out to be 0.09.

As for U31C G63A A64C, the self-cleavage amounted to 0.15. The same measure for U31C C40U U43A A45U C68U U69C U76C: 0.03; for U31C C62U U72G: 0.41; for U31C C37A A56U: 0.11.

As for U31C C32U A64G, the self-cleavage was found to be 0.37. Regarding U31C C32G U43C, the self-cleavage stood at 0.12. The same measure for U31C C34G U54A: 0.39; for U31C A45G U72A U74C: 0.48. As for U31C C32A A45U U51C A65G U74C, the self-cleavage was found to be 0.08. The same measure for U31C G33U U78C: 0.18; for U31C A45G C62A U69C U72C: 0.21. The same measure for U31C A77U U78C: 0.93; for U31C G42A A64G U67A: 0.12; for U31C G52A A65G: 0.29.

As for U31C G52A A65U, the self-cleavage worked out at 0.44. U31C C40U A47G U78C: the self-cleavage was 0.24.

For the variant U31C U41C U66C, the self-cleavage was 0.21. The result for U31C C39U A45U A47G reads 0.1; that for U31C U41A U49A, 0.27.

As for U31A U51C U76A, the self-cleavage is 0.57. The same measure for U31A U54C U58C U66C U69A G70A: 0.12; for U31C C40U U54C A57G U72A: 0.29. The same measure for U31C G63U U80C: 1.01. The same measure for U31C G36C U41G: 0.4; for U31C G46A A75G: 0.37; for U31C U41C A47U U72A U78C: 0.12. Take U31C A35G U54C U60G: the self-cleavage was found to be 0.3. As for U31C G33U U41A U67C C79A, the self-cleavage came to 0.02. For U31C C40U U80C, the self-cleavage was 0.83.

For the variant U31C A75U U78C, the self-cleavage was 0.88.

Consider U31C C40U U41C U60C U69A, for which the self-cleavage amounted to 0.32.
